# In US20230192795A1 (Hoffmann-La Roche, published 2023):
# Key:
# [1] = target: T1, cynomolgus IL7Ra-IL2Rg-Fc biotin (cynomolgus, UniProt P13232;Q29615); experiment: SPR, captured via anti-P329G, receptor-Fc 2.34-300 nM, 1:1 fit
# T1 construct: extracellular domain; Heterodimer of the ECD of IL7Ra and IL2Rg chains fused to an Fc; also called cynomolgus IL7Ralpha-IL2Rgamma-Fc heterodimer; cynomolgus IL7 receptor
# Description: (§1) Surface Plasmon Resonance (SPR) experiments were performed on a Biacore 8 K with HBS-EP + 1 mg/ml BSA as running buffer. Anti-P329G Fc specific antibody (Roche internal) was directly immobilized by amine coupling on a C1 chip (Cytiva). The PD1-IL7 constructs were captured for 140 s at 5 nM. […] The dissociation phase was monitored for 800 s and triggered by switching from the sample solution to running buffer. The chip surface was regenerated after every cycle using two injections of 10 mM glycine pH 2 for 60 sec. Bulk refractive index differences were corrected for by subtracting the response obtained on the reference flow cell (containing immobilized anti P329G Fc specific IgG only). The affinity constants were derived from the kinetic rate constants by fitting to a 1:1 Langmuir binding using the Biacore evaluation software (Cytiva).
# (§2) Four IL7 single variants and two IL7 double variants were compared to IL7 wild-type for binding to cynomolgus IL7 receptor (Table 18). The affinity of the IL7 variants to the IL7 receptor was determined using the recombinant heterodimer of the extracellular domains of the IL7 receptor alpha chain and the common IL2 receptor gamma chain.
# [2] = target: T2, Human IL7Ra-IL2Rγ-Fc heterodimer (human, biotin on the avi tag); experiment: SPR (Example 2.4), captured via anti-P329G, receptor-Fc 2.34-300 nM, 1:1 fit
# T2 construct: Extracellular domains of IL-7Ralpha and IL-2Rgamma fused to Fc knob and Fc hole; also called hu IL7Ra-IL2Rγ-Fc avi biotin; human IL7Ra-IL2Rg-Fc biotin
# Description: as §1, with “SPR” for “Surface Plasmon Resonance (SPR)”
# Four IL7 single variants, two IL7 double variants and IL7 wild-type were compared to four reference molecules with modified IL7 for binding to human IL7 receptor (Table 23). The affinity of the IL7 variants to the IL7 receptor was determined using the recombinant heterodimer of the extracellular domains of the IL7 receptor alpha chain and the common IL2 receptor gamma chain.
# [3] = target: T3, murine IL7Ra-IL2Rg-Fc biotin (murine, UniProt P16872 21-239; P34902 23-263); experiment: SPR, captured via anti-P329G
# T3 construct: extracellular domain; Heterodimer of the ECD of IL7Ra and IL2Rg chains fused to an Fc; also called murine IL7Ralpha-IL2Rgamma-Fc heterodimer; murine IL7 receptor; not shown: Fc part and avi tag; Fc part
# T3 sequence (looked up) 1: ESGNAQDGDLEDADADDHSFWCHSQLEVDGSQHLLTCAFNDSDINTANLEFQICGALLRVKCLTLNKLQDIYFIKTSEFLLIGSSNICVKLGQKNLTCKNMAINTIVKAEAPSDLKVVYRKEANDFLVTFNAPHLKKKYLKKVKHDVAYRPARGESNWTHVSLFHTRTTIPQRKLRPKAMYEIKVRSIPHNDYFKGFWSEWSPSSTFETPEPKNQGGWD
# T3 sequence (looked up) 2: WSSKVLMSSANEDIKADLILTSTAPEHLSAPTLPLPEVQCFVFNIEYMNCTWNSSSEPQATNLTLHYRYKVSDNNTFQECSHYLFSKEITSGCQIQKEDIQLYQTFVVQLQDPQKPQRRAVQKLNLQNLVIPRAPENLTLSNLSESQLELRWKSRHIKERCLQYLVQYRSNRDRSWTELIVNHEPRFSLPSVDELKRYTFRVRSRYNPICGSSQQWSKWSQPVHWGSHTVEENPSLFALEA
# Description: as §1
# as §2, with “murine” for “cynomolgus”, “19).” for “18).”
# [4] = target: T2, Human IL7Ra-IL2Rγ-Fc heterodimer; experiment: SPR, captured via anti-P329G, receptor-Fc 2.34-300 nM, 1:1 fit
# Description: as §1
# as §2, with “human” for “cynomolgus”, “17).” for “18).”
# [5] = target: T2, Human IL7Ra-IL2Rγ-Fc heterodimer; experiment: SPR, captured from supernatant, 800 nM receptor-Fc single injection
# Description: Surface Plasmon Resonacne (SPR) experiments were performed on a Biacore T200 with HBS-EP+ as running buffer (0.01 M HEPES pH 7.4, 0.15 M NaCl, 0.005% Surfactant P20 (BR-1006-69, GE Healthcare)). Fc specific antibodies (Roche internal) were directly immobilized by amine coupling on a CM5 chip (GE Healthcare). The PDI-IL7 constructs were captured from supernatants for 120 s at 100 nM. […] Only the extracellular domains were fused to Fc domains, produced in HEK Expi Cells and purified by two-step column chromatography including affinity purification via Protein A followed by size-exclusion chromatography. A single injection of 800 nM hu IL 7Ra-IL2Rγ-Fc heterodimer was passed over the ligand at 30 µ1/min for 240 sec to record the association phase. The dissociation phase was monitored for 360 s and triggered by switching from the sample solution to HBS-EP+. The chip surface was regenerated after every cycle using one injection of 10 mM glycine pH 2 for 60 sec. Bulk refractive index differences were corrected for by subtracting the response obtained on the reference flow cell 1. The response units after the capture step and at the end of the association phase were recorded and a ratio of binding to capture was calculated. The single binding curves were fitted in the dissociation phase to obtain a koff for ease of comparison (Biacore Evaluation software, GE Healthcare).
# The ratio of binding to capture was calculated and the dissociation phase was fitted to a single curve to support the characterization of the off-rate.
# [6] = target: T4, IL-7Rα/IL-2Rγ on human T cells (human, UniProt P16871 21-459; P31785 23-369); experiment: cell-based or functional assay
# T4 sequence (looked up) 1: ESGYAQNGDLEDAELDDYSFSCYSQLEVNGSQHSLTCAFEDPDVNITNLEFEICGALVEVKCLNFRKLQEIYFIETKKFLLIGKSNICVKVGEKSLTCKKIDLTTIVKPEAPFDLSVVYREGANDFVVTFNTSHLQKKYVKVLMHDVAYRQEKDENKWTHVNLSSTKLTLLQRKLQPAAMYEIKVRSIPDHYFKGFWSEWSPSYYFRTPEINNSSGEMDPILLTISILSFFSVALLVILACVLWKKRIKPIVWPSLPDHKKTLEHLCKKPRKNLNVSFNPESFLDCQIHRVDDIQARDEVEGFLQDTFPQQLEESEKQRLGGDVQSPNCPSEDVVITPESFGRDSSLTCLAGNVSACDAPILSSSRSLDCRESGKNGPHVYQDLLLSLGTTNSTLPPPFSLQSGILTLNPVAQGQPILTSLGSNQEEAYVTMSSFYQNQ
# T4 sequence (looked up) 2: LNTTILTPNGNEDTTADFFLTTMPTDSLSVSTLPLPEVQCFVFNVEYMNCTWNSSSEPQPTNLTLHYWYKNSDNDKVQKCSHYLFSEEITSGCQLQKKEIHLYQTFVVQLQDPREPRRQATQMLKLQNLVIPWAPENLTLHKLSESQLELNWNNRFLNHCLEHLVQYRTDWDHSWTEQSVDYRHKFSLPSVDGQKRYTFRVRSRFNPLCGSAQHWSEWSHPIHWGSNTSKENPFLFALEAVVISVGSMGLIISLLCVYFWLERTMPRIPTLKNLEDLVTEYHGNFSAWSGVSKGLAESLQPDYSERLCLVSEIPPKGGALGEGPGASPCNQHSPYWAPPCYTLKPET
# [7] = target: human PD-1 on T cells (human, UniProt Q15116 25-288); experiment: cell-based or functional assay
# Sequence of UniProt Q15116 (Q15116 25-288 limits assumed): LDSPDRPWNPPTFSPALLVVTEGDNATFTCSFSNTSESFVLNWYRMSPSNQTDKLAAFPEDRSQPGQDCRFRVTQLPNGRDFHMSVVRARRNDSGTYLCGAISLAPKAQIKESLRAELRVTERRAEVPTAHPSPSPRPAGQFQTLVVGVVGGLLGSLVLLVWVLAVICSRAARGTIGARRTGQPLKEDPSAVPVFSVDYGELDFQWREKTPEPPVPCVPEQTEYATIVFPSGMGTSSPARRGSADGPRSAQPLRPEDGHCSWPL
binder,measurement,setting,value
"PD1-IL7-VAR4 (V15K) (other, Format as m1; IL-7 with V15K; also called PD1-IL7 -V15K (Var4); P1AF5541-006) light: DIVMTQSPDSLAVSLGERATINCKASESVDTSDNSFIHWYQQKPGQSPKLLIYRSSTLESGVPDRFSGSGSGTDFTLTISSLQAEDVAVYYCQQNYDVPWTFGQGTKVEIKRTVAAPSVFIFPPSDEQLKSGTASVVCLLNNFYPREAKVQWKVDNALQSGNSQESVTEQDSKDSTYSLSSTLTLSKADYEKHKVYACEVTHQGLSSPVTKSFNRGEC heavy 1: EVQLLESGGGLVQPGGSLRLSCAASGFSFSSYTMSWVRQAPGKGLEWVATISGGGRDIYYPDSVKGRFTISRDNSKNTLYLQMNSLRAEDTAVYYCVLLTGRVYFALDSWGQGTLVTVSSASTKGPSVFPLAPSSKSTSGGTAALGCLVKDYFPEPVTVSWNSGALTSGVHTFPAVLQSSGLYSLSSVVTVPSSSLGTQTYICNVNHKPSNTKVDKKVEPKSCDKTHTCPPCPAPEAAGGPSVFLFPPKPKDTLMISRTPEVTCVVVDVSHEDPEVKFNWYVDGVEVHNAKTKPREEQYNSTYRVVSVLTVLHQDWLNGKEYKCKVSNKALGAPIEKTISKAKGQPREPQVCTLPPSRDELTKNQVSLSCAVKGFYPSDIAVEWESNGQPENNYKTTPPVLDSDGSFFLVSKLTVDKSRWQQGNVFSCSVMHEALHNHYTQKSLSLSPGK heavy 2: EVQLLESGGGLVQPGGSLRLSCAASGFSFSSYTMSWVRQAPGKGLEWVATISGGGRDIYYPDSVKGRFTISRDNSKNTLYLQMNSLRAEDTAVYYCVLLTGRVYFALDSWGQGTLVTVSSASTKGPSVFPLAPSSKSTSGGTAALGCLVKDYFPEPVTVSWNSGALTSGVHTFPAVLQSSGLYSLSSVVTVPSSSLGTQTYICNVNHKPSNTKVDKKV[human IgG1 Fc with changes left out]GGGGSGGGGSGGGGSDCDIEGKDGKQYESKLMVSIDQLLDSMKEIGSNCLNNEFNFFKRHICDANKEGMFLFRAARKLRQFLKMNSTGDFDLHLLKVSEGTTILLNCTGQVKGRKPAALGEAQPTKSLEENKSLKEQKKLNDLCFLKRLLQEIKTCWNKILMGTKEH",Kd,[1],36.5 nM
same,koff,[1],0.012 s⁻¹
same,kon,[1],329000 M⁻¹ s⁻¹
same,Kd,[2],40.2 nM
same,koff,[2],0.0101 s⁻¹
same,kon,[2],251000 M⁻¹ s⁻¹
same,binding result,[3],no binding (tested: 2.34 to 300 nM receptor-Fc)
same,Kd,[4],25.8 nM
same,koff,[4],0.00535 s⁻¹
same,kon,[4],305000 M⁻¹ s⁻¹
same,koff,[5],0.00994 s⁻¹
same,"fold increase in EC50, EC50 [PD1+]/EC50 PD1-IL7wt [PD1+]",[6],2.5 fold
same,"fold increase in EC50, EC50 [with PD1bl]/EC50 [PD1+]",[7],28.8 fold
